# Test results taken from the supplement of paper PMC3334620.
# In all, about 33,000 sequences were measured (“E-score (-0.5 to 0.5)”: median about -0.012, highest 2% from about 0.27 on). The list shows a part of the results.
# Target: T1, Vhr1 (UniProt P40522)
# T1 sequence: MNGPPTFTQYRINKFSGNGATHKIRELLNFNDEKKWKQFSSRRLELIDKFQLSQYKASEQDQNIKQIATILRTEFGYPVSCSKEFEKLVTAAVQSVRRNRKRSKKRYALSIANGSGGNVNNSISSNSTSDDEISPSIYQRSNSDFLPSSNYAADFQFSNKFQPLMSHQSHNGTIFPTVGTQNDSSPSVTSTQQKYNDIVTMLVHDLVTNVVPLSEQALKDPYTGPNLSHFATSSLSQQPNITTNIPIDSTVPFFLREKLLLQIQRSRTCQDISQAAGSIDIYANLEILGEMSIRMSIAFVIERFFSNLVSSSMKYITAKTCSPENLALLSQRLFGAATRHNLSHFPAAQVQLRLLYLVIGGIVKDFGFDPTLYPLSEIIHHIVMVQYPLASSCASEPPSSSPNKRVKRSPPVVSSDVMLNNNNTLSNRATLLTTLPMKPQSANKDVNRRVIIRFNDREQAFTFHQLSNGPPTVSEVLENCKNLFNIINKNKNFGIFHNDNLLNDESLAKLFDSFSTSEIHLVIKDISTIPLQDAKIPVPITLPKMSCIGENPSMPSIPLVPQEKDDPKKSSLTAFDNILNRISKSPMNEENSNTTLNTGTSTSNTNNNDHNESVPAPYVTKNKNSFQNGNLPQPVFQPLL
# Test: PBM E-score (8-mer binding enrichment) (E-score (-0.5 to 0.5)); higher = stronger / more preferred TF binding; most listed sequences are background and not binding sites
# Conditions: protein concentration: 200 nM; construct: GST-full length
# In short: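 The E-score, a modified Wilcoxon-Mann-Whitney statistic, was computed by the Universal PBM Analysis Suite for every ungapped eight-base word pooled with its reverse complement. Scans behind it were normalised with masliner after bound GST-tagged yeast transcription factors were detected with fluorescent anti-GST. The proteins, at about 100-200 nM, had been applied to universal all-10-mer Agilent arrays made double-stranded by primer extension.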
row,Sequence,PBM E-score
1,ACGCCAGA,0.0884
2,AGACTCCG,0.225
3,CGATTGAC,-0.0458
4,ATACGGGA,-0.00269
5,ACCCGACA,0.0145
6,CCTATATA,0.0584
7,AACCGTCC,-0.107
8,ATTAAGAG,-0.0917
9,ACCAGCCC,0.168
10,GATGCCAC,-0.159
11,AGTTTCGC,-0.0377
12,ACCTTAAC,-0.135
13,GGTGTATA,-0.0925
14,CATGTAGA,0.00603
15,GCTGGATA,0.0633
16,ATCTGCAC,-0.141
17,GACTTTCC,-0.0868
18,AGACGATG,0.0858
19,CACCACAC,0.0911
20,CGTGACAG,-0.046
21,ATCCGACA,0.0761
22,AGCGCGGG,0.248
23,CCGAAGCA,0.0447
24,CAACATTG,0.162
25,AACAGATA,-0.0167

row,Sequence,PBM E-score
1,ACCTATAA,-0.0283
2,CTGCTGTC,0.119
3,ATCGAGTC,0.248
4,ACCAGGCC,-0.0551
5,TAAATCGA,-0.0427
6,CAGTGGGG,-0.168
7,GAGGAAAC,-0.0889
8,CCCGCTAA,-0.0681
9,GATGCCTA,-0.169
10,GCGGTGCC,0.0693
11,GACTTACA,-0.0564
12,CACTAGTA,-0.0153
13,TTCATCAA,0.0812
14,TATTCTAA,-0.0256
15,TAGCATGA,0.209
16,CGATCGAC,-0.118
17,ATTCAATA,-0.0197
18,ACAGGAAT,-0.0744
19,GCGGCTAA,-0.0238
20,GACCAGGA,-0.0188
21,TGGGTGAA,0.23
22,CACCTGAG,-0.0144
23,CGAATATC,-0.12
24,AGGATAAG,-0.0484
25,AGGTAAGA,-0.114

row,Sequence,PBM E-score
1,CTAGCGAG,-0.151
2,ATCAACAT,0.162
3,CCAGTCCC,-0.0506
4,TGCCTCCA,-0.263
5,CAGCGTGC,0.139
6,ATTTTCAC,0.0314
7,AACCAATG,0.209
8,AATTATAG,0.0858
9,GCGTATGA,0.0514
10,AAGCCAAC,-0.0924
11,ATCAGTAC,0.126
12,CAGACCCG,0.203
13,ACGGGCAA,-0.126
14,CTACTATC,0.277
15,CAATTCAG,-0.00259
16,GTCTAAAC,0.00959
17,TTCGTCAA,0.0712
18,AAGAACGT,0.101
19,CCCCATGC,-0.0398
20,ATCACCTA,0.121
21,TAAACAGA,0.017
22,CTCAAGCA,-0.124
23,AATCATGC,0.304
24,CATTCTGC,-0.0605
25,GAGGATCC,-0.0377

row,Sequence,PBM E-score
1,GTCTCGTA,-0.123
2,ACACATGC,0.229
3,CACGACGA,0.0185
4,ATCCGTTC,0.0206
5,AATACAAT,0.00406
6,AACGGTGA,0.0551
7,CAAAACGA,0.103
8,ATGAGATC,-0.0692
9,CAAATTAA,-0.164
10,AAGTGGAG,0.0941
11,TCGATAGA,-0.095
12,TCGTTAAA,-0.303
13,CACATCTC,0.0374
14,TCATCAAA,0.0877
15,ACCCATCC,0.158
16,GAGCAATA,0.0174
17,AGCACTTC,-0.213
18,AAGTGGGG,-0.115
19,CATTAGTA,0.106
20,GAATGACC,0.00381
21,ACGCCTAC,-0.119
22,AATAGTTA,0.0641
23,CCTTCCGC,-0.212
24,CCTCCAAG,-0.0612
25,ACCGTTAT,-0.0316

row,Sequence,PBM E-score
1,ACTCATCA,0.32
2,AGGCACCA,-0.0307
3,AATCGATA,0.0646
4,AGAGCCCG,-0.0324
5,ATTAACAA,0.159
6,GAACACCA,-0.0163
7,CCCACGAG,0.132
8,ACGTGGAG,-0.0818
9,AGACTGTC,-0.0702
10,CCGGCTAC,0.107
11,ATGCCCTA,-0.316
12,CCTCTTCG,-0.184
13,CTTGCCTC,-0.133
14,GCGATGGA,0.0536
15,AGTATATA,0.33
16,CGCCCCAC,0.261
17,AGCTTGCC,-0.265
18,AGGACTCC,0.129
19,AACGAGCC,-0.00132
20,CCACTAGA,-0.292
21,CATAAATA,-0.0195
22,CGGTGTAC,0.0367
23,CTGAAAAC,-0.287
24,ATACTGAC,0.181
25,TCGAACGA,-0.0073

row,Sequence,PBM E-score
1,GAGGTATC,0.0778
2,CCAAATAG,0.0404
3,ACTCATAA,0.164
4,CTCTAAAG,-0.211
5,AGCTCATG,0.0505
6,ACGCAACC,-0.0121
7,AAGGGCAC,-0.107
8,GCATTGCA,-0.00744
9,CGGAGTCC,0.324
10,CGCGGCTA,-0.0223
11,ACCACCTA,0.011
12,CACTGAAC,0.109
13,ACGCGGTC,0.0101
14,ATCCCTAG,-0.117
15,CTGACGCC,-0.19
16,AAAGGTAG,-0.239
17,CTGCCCCC,-0.162
18,AACATCGT,0.112
19,CGTTGGCA,-0.111
20,CGGGTCGA,0.186
21,ACATGTGC,0.117
22,ACGGATTG,-0.0408
23,GATGCTGC,-0.116
24,AAAGGGTG,-0.109
25,CCTACCGA,-0.0507

row,Sequence,PBM E-score
1,GACCTCTC,0.00701
2,CTCGGAAG,-0.00017
3,AACTACCG,-0.186
4,CTAGAGAC,-0.229
5,GGGGTTGA,0.00987
6,GATAAACC,0.0749
7,ACTCCTTC,0.0981
8,CGGCTTTC,-0.18
9,AGCTAGAG,-0.124
10,ACCCCTCT,-0.0505
11,GTTAGGCA,-0.108
12,CGCAATCC,-0.0979
13,AATTACTC,0.0905
14,ACTGTCAG,0.101
15,ACCGTGTG,0.155
16,GAGGTCTA,-0.0738
17,AGTAGCAG,-0.00936
18,ATCGCGAG,0.169
19,GAAGTTAC,0.0846
20,GATTGTAC,-0.113
21,CCAATACA,-0.00307
22,ACTTATAA,0.0164
